Read counts after selection give these values, which scatter widely.
test system: NB7; assay: fold depletion of shRNA, plasmid library share / infected cells without Dox share (9 days) (ratio); higher = more depleted after infection (more toxic, leaky expression from a Tet-inducible vector; NB7 is a neuroblastoma line without caspase-8); conditions: shRNA pool: CD95L ORF + CD95L 3'UTR + Venus libraries
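Also: shRNA barcodes quantified by deep sequencing of PCR amplicons from cellular DNA, counts expressed as percent of each subpool, ratio averaged over two biological duplicates.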

Sequence | fold depletion of shRNA
TTACAGGCACCGAGAATGTTG | 4.69
TTACCAGTGCTGATCATTTAT | 0.68
TTACCCATATCCCCAGATCTA | 0.758
TTAGGAAAATATGGGTTGCAT | 5.34
TTAGGCAGATTGAAAAGGACA | 0.704
TTAGTGCCTGAGAGTATTTAG | 1.17
TTATATGTCAACGTATCTGAG | 2.5
TTATGATTCTTTGTTACAGGC | 1.51
TTATGTAGATGTGCATTTTTG | 8.55
TTCAAAATGTCTGTAGCTCCT | 6.95
TTCAAGATCCGCCACAACATC | 1.76
TTCAAGGACGACGGCAACTAC | 1.81
TTCAAGGAGGACGGCAACATC | 2.84
TTCAAGTCCGCCATGCCCGAA | 0.657
TTCAATCTTACCAGTGCTGAT | 0.883
TTCAATTACCCATATCCCCAG | 0.949
TTCACCGGGGTGGTGCCCATC | 0.971
TTCACTTCTAAATGCATATCC | 0.682
TTCAGATACATGGTTGTGACC | 2.77
TTCAGCGTGTCCGGCGAGGGC | 1.33
TTCAGCTCTTCCACCTACAGA | 9.79
TTCATTCCTAACACAGCATGT | 0.981
TTCCACCTACAGAAGGAGCTG | 2.15
TTCCAGTGCAATTGTAGGGGT | 1.61
TTCCATTATGATTCTTTGTTA | 0.515
TTCCGGGGTCAATCTTGCAAC | 7.2
TTCCTAACACAGCATGTGTAT | 1.18

Sequence | fold depletion of shRNA
TTCCTATAATATAATAAATAT | 1.08
TTCCTGACAATCAACTCTAAT | 0.677
TTCGCCCGCTACCCCGACCAC | 2.56
TTCGGCTTATATAAGCTCTAA | 0.586
TTCTAAATGCATATCCTGAGC | 2.08
TTCTACACTCATCTTAGTGCC | 2.96
TTCTGGAGTGAAGTATAAGAA | 0.504
TTCTGGTTGCCTTGGTAGGAT | 4.35
TTCTTACATGCATTTGAGGTC | 1.83
TTCTTCAAGGACGACGGCAAC | 1.45
TTCTTCAAGTCCGCCATGCCC | 5.85
TTCTTCCCTGTCCAACCTCTG | 2.58
TTCTTTCCATTATGATTCTTT | 0.861
TTCTTTGTTACAGGCACCGAG | 8.63
TTGAAAAGGACACCTTTTAAC | 0.681
TTGAATGCTTCCTGACAATCA | 1.55
TTGAGACCACAGGGTTCAAAA | 1.6
TTGAGGAATCTCAGACGTTTT | 4.01
TTGAGGTCAAGTAAGAAGACA | 0.721
TTGATTGTCAGCTACTAATGA | 1.74
TTGCAACAACCTGCCCCTGAG | 11.2
TTGCATAATAAGCTAAAGAGG | 0.777
TTGCATTTGGTCAAGATTTTG | 30.9
TTGCTACCTCAAGGGGGACTG | 0.841
TTGGGATTCTTTCCATTATGA | 1.48
TTGGGGACTCATTTCATTCCT | 1.2
TTGGTCAAGATTTTGAATGCT | 6.78

same assay, conditions: shRNA pool: CD95 ORF + CD95 3'UTR + Venus libraries

Sequence | fold depletion of shRNA
TTAAGATTCTCCTTACTACTA | 1.66
TTAATAGCTGGCTGTAAATAC | 1.27
TTAATAGTCCACCAAAAGGCA | 0.954
TTAATATCTCATGATTCTGCC | 1.45
TTAATGCCCAAGTGACTGACA | 4.69
TTACCATATTTCTAAACTTTG | 0.706
TTACCTCTGATAATTCTAGAG | 0.855
TTACGTCTGTTGCTAGATTAT | 1.27
TTACTACAGTTGAGACTCAGA | 1.13
TTACTACTATCCTACGTTTAA | 0.875
TTACTAGTGACTCAGAAAATT | 0.874
TTACTGGCTCAAAACTACCTA | 1.21
TTACTGGGTACATTTTATCAT | 1.13
TTAGAAATTCTAGCCTGGTTT | 2.03
TTAGAAGTGGAAATAAACTGC | 1.15
TTAGGAATTGCTCTTGTCATA | 2
TTAGTACAAATGTCTATCCAC | 0.656
TTAGTGTTTGAAAAGATTCTT | 1.02
TTATAAAATATAGGTAAAAGT | 1.01
TTATAAACTGAAGCAGATACC | 1.17
TTATAACTCTGAGAAGATCAT | 0.577
TTATAATGTTTGACTATTATA | 0.741

Sequence | fold depletion of shRNA
TTATACAATATTTCAATTGTG | 1.71
TTATACATAGCAATGGTAAAA | 0.547
TTATATATGTGTATGCATTTT | 0.815
TTATATTTCTGTAAATGTAAA | 1.33
TTATCATTTATTAGCGCTGAA | 1.87
TTATCGTCCAAAAGTGTTAAT | 16.6
TTATCTGATGTTGACTTGAGT | 6.1
TTATGTAAAGTATATGTATTT | 1.06
TTATTGGTGTCATATTATACA | 0.87
TTATTTTTCCCCCACCCCCGA | 11.4
TTCAAACTTCAGAAATGAAAT | 0.781
TTCAACTGCTTCGTAATTGGC | 14.7
TTCAAGATCCGCCACAACATC | 0.776
TTCAAGGACGACGGCAACTAC | 1.67
TTCAAGGAGGACGGCAACATC | 1.26
TTCAAGTCCGCCATGCCCGAA | 0.855
TTCAATAATGTCCCATGTAAA | 0.643
TTCAATTGTGAATTCACATAG | 1.58
TTCACATAGAAAACATTAAAT | 0.938
TTCACCGGGGTGGTGCCCATC | 0.679
TTCAGAAATGAAATCCAAAGC | 0.707
TTCAGACTATCATCCTCAAGG | 1.42

Sequence | fold depletion of shRNA
TTCAGCGTGTCCGGCGAGGGC | 1.13
TTCAGTTCTGAGTATATGCAA | 1.87
TTCATCAAGAGTAAATGCAGT | 1.88
TTCATGGAAAGAAAGAAGCGT | 1.08
TTCCAAATGCAGAAGATGTAG | 0.462
TTCCACTAATTGTTTGGGTGA | 1.03
TTCCATTTATGGAGGATTTTT | 1.15
TTCCCCCACCCCCGAAAATGT | 3.14
TTCGAAAGAATGGTGTCAATG | 4.9
TTCGAGGGCGACACCCTGGTG | 1.2
TTCGCCCGCTACCCCGACCAC | 1.7
TTCGTAATTGGCATCAACTTC | 1.5
TTCGTGACCGCCGCCGGGATC | 1.47
TTCTAAACTTTGTTTATAACT | 0.749
TTCTAAGATTTAAGATTCTCC | 1.11
TTCTAGAGATTTTACCATATT | 0.746
TTCTCAGGCATCAAAAGCATT | 1.39
TTCTCATGAATCTCCAACTTT | 0.772
TTCTCCTTACTACTATCCTAC | 0.88
TTCTGAGTATATGCAATTAGT | 0.665
TTCTGCCATAAGCCCTGTCCT | 1.42
TTCTGCCTCCAAGGATGTTTA | 1.1

Sequence | fold depletion of shRNA
TTCTGTAAATGTAAACTGTGA | 0.829
TTCTGTAGTATGAATGTAATC | 0.797
TTCTTAATAGCTGGCTGTAAA | 1.44
TTCTTACGTCTGTTGCTAGAT | 1.11
TTCTTATTTTTCCCCCACCCC | 2.06
TTCTTCAAGGACGACGGCAAC | 1.22
TTCTTCAAGTCCGCCATGCCC | 1.86
TTCTTCCAAATGCAGAAGATG | 0.895
TTCTTCTTTTGCCAATTCCAC | 2.69
TTCTTTCTCAGGCATCAAAAG | 1.91
TTCTTTTGCCAATTCCACTAA | 0.93
TTGAAAAGATTCTTAATAGCT | 0.7
TTGAAAGTTTGTATTAAATGT | 0.983
TTGACTATTATATATGTGTAT | 0.787
TTGACTTGAGTAAATATATCA | 0.686
TTGAGACTCAGAACTTGGAAG | 0.635
TTGAGCAGGAGAGTATTACTA | 0.894
TTGAGGAAGACTGTTACTACA | 2.09
TTGAGTAAATATATCACCACT | 1.11
TTGAGTGCAGAATTTAAATAA | 1.26
TTGATTAAAGATCTCAAAAAA | 1.16
TTGCAATCAAAGATGATAAAA | 0.795

Sequence | fold depletion of shRNA
TTGCACAGTTTATTGGTGTCA | 2.22
TTGCACCAAATGTGAACATGG | 1.28
TTGCAGAGAAAATTCAGACTA | 1.51
TTGCCAATTCCACTAATTGTT | 1.46
TTGCCCCTTGTGTTTGGAATT | 0.741
TTGCCTCTAAATTACCTCTGA | 2.93
TTGCCTTGGTGCTCATCTTAA | 10.9
TTGCTAGATTATCGTCCAAAA | 0.768
TTGCTCTTGTCATACCCCCAA | 6.31
TTGCTGGAGTCATGACACTAA | 0.87
TTGGAATTATAAAATATAGGT | 1.26
TTGGAATTGAGGAAGACTGTT | 0.777
TTGGAGATACTAACTGCTCTC | 4.2
TTGGCATCAACTTCATGGAAA | 3.69
TTGGGAAAACAAACTTCATCA | 1.88
TTGGGGTGGCTTTGTCTTCTT | 0.242
TTGGGTGAAGAGAAAGGAAGT | 1.19
TTGGTGTCATATTATACAATA | 0.907
TTGGTTTTTTACTGGGTACAT | 0.89
TTGTAACTCTACTGTATGTGA | 0.983
